The values that follow come from a collection of fitness landscapes (doi:10.1016/j.celrep.2020.107928).

Whole data set: some 81,000 sequences, median “one-hybrid fitness for binding parS DNA” near -0.17, cut for the highest 2% near 0.51. This is one part of the list.

Sequences and labels used below:
B1: Caulobacter ParB omega fusion; a variant is named by its letters at X, in order, B8GW30 (parent)
chain: MESVVVGEPGMSEGRRGLGRGLSALLGEVDAAPAQAPGEQLGGSREAPIEILQRNPDQPRRTFREEDLEDLSNSIREKGVLQPILVRPSPDTAGEYQIVAGERAWRAAQRAGLKTVPIMVRELDDLAVLEIGIIENVQRADLNVLEEALSYKVLMEKFERTQENIAQTIGKSXSHVANXMRLLXLPDEVQSYLVSGELTAXHARAIAAAADPVALAKQIIEGGLSVRETEALARKAPNLSAGKSKGGRPPRVKDTDTQALESDLSSVLGLDVSIDHRGSTGTLTITYATLEQLDDLCNRLTRGI

Variants of B1 are the subject of this experiment. As to the kind of experiment: one-hybrid fitness for binding parS DNA (scaled: cognate 1, non-cognate 0); higher = stronger binding. The following applies: with parS DNA site. In outline:
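Caulobacter ParB libraries with four specificity codons randomised were screened by bacterial one-hybrid selection in the E. coli USO strain, using a HIS3 reporter whose site lies 19 bp from the promoter. Selection ran for 48 hours at 37°C on M9 lacking histidine, with 0.1 mM IPTG and 5 mM 3-AT. Plasmids were Illumina-sequenced before and after selection, three replicate libraries were pooled, and variants with under 10 reads were dropped. Fitness is the log change in each variant's read ratio to wild type, rescaled against the cognate and non-cognate sites.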
In the case of PAVP, the “one-hybrid fitness for binding parS DNA” value is at most 0.2. Then MSRE, with at most 0.2; and VKST, with at most 0.2; and IQKV, with at most 0.2.

As to TNIC, the “one-hybrid fitness for binding parS DNA” value is at most 0.2. QCSS: the “one-hybrid fitness for binding parS DNA” value was at most 0.2. In the case of LPVP, the “one-hybrid fitness for binding parS DNA” value is at most 0.2. RCFW: the “one-hybrid fitness for binding parS DNA” value is 0.256. Consider MTHR, for which the “one-hybrid fitness for binding parS DNA” value was at most 0.2. Then NFAY, with at most 0.2; and NKAA, with at most 0.2. Then PLDF, with at most 0.2. Then HQTY, with at most 0.2; and VCSD, with at most 0.2. For MQTC, the “one-hybrid fitness for binding parS DNA” value is at most 0.2. Then KALW, with at most 0.2. Then SRAP, with at most 0.2; and YLWR, with at most 0.2. VRDT: the “one-hybrid fitness for binding parS DNA” value is at most 0.2. Then NFAC, with at most 0.2; and PNWT, with at most 0.2. Next, VILP: at most 0.2; FRPE: at most 0.2. On to DAEE, for which the “one-hybrid fitness for binding parS DNA” value was at most 0.2. With IENC, the “one-hybrid fitness for binding parS DNA” value is at most 0.2.

For DALG, the “one-hybrid fitness for binding parS DNA” value is at most 0.2. For YSQG, the “one-hybrid fitness for binding parS DNA” value was at most 0.2.

Consider RRSH, for which the “one-hybrid fitness for binding parS DNA” value is at most 0.2. Then WGAY, with at most 0.2; and ADPS, with at most 0.2. Then LIRA, with at most 0.2; and LGER, with at most 0.2. Next, KPHA: at most 0.2. Take SCRF: the “one-hybrid fitness for binding parS DNA” value is at most 0.2. Next, QDAL: at most 0.2; KLEH: at most 0.2. Next, WWVG: at most 0.2. Then HFHC, with at most 0.2; and VYWT, with at most 0.2; and DSMG, with at most 0.2. As for ESRW, the “one-hybrid fitness for binding parS DNA” value is at most 0.2. Next, TGLH: at most 0.2; MELL: at most 0.2. Next, LPRW: at most 0.2; DFAS: at most 0.2. Next, YNVG: at most 0.2; TSML: at most 0.2; RYLC: 0.955. Turning to AMTN, the “one-hybrid fitness for binding parS DNA” value is at most 0.2.

Consider RIFE, for which the “one-hybrid fitness for binding parS DNA” value was 0.249. Then RNTR, with at most 0.2; and PTES, with at most 0.2; and SLYR, with at most 0.2. Regarding HRCL, the “one-hybrid fitness for binding parS DNA” value was at most 0.2. Take TYLD: the “one-hybrid fitness for binding parS DNA” value is at most 0.2.

In the case of QAGC, the “one-hybrid fitness for binding parS DNA” value was at most 0.2.

On to QKLR, for which the “one-hybrid fitness for binding parS DNA” value is at most 0.2. Then MATA, with at most 0.2; and SLVS, with at most 0.2.

For FAFL, the “one-hybrid fitness for binding parS DNA” value is at most 0.2.

In the case of VWHR, the “one-hybrid fitness for binding parS DNA” value is at most 0.2. Then ILNQ, with at most 0.2; and EDWY, with at most 0.2; and VREC, with at most 0.2.

Turning to DKPR, the “one-hybrid fitness for binding parS DNA” value was at most 0.2. Then NMVW, with at most 0.2; and TYTL, with at most 0.2; and GRRC, with at most 0.2. Then HQPW, with at most 0.2; and VWSQ, with at most 0.2. Then HCYM, with at most 0.2; and PYAW, with at most 0.2. For the variant IRPA, the “one-hybrid fitness for binding parS DNA” value is at most 0.2. Then EQCT, with at most 0.2; and LPST, with at most 0.2. Then RIWL, with at most 0.2; and RSNN, with 0.445; and CRGR, with at most 0.2. Next, ALPL: at most 0.2.

Turning to YGVH, the “one-hybrid fitness for binding parS DNA” value was at most 0.2. For NWKG, the “one-hybrid fitness for binding parS DNA” value was at most 0.2. Then RWPY, with at most 0.2; and YTKH, with at most 0.2; and ECAR, with at most 0.2.
